# According to the supplement of paper PMC3334620:
# Over roughly 33,000 sequences, “E-score (-0.5 to 0.5)” has its median near -0.013; the highest 2% begin near 0.3. The list shows a part of the results.
# Target: T1, Msn1 (UniProt P22148)
# T1 sequence: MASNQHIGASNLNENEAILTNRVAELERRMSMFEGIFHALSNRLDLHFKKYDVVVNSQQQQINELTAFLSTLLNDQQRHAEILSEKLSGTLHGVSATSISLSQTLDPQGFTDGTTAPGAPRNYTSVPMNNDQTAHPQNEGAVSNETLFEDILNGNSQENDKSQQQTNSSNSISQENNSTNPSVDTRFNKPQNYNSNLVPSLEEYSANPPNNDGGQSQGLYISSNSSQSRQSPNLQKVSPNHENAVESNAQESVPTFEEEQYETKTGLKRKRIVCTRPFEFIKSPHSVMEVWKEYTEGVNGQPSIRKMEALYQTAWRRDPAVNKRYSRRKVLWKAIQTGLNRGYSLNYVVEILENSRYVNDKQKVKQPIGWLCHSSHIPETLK
# Test: PBM E-score (8-mer binding enrichment) (E-score (-0.5 to 0.5)); higher = stronger / more preferred TF binding; most listed sequences are background and not binding sites
# Settings: protein concentration: 200 nM; construct: GST-full length
# How it was run: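 GST-tagged yeast TFs (full-length or DNA-binding domain) were made by PURExpress in vitro transcription/translation and applied at about 100-200 nM to universal all-10-mer Agilent arrays. The arrays were made double-stranded by primer extension, on fresh or once-stripped slides. Bound protein was detected with fluorescent anti-GST, and scans were normalised with masliner. Each ungapped eight-base word, pooled with its reverse complement, received an E-score (modified Wilcoxon-Mann-Whitney statistic) from the Universal PBM Analysis Suite.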
row,Sequence,PBM E-score
1,CTGCGAAA,-0.0565
2,AGCTGACT,-0.0596
3,CTGTAGTA,0.194
4,AGCACTAG,0.0492
5,CTGATATA,-0.0313
6,GCAGATAC,-0.049
7,GTTCATCA,-0.0252
8,GACTACCA,-0.0815
9,CCGGGTAA,0.172
10,GAGGCTGC,-0.185
11,CGAGCCCC,-0.306
12,GAAGAATC,-0.0456
13,CTGTATCA,0.01
14,ATTGTTGG,0.207
15,AGTGGGAA,0.0529
16,CACTCTGA,-0.291
17,CAGTTCGA,-0.0909
18,AACCGTGC,-0.166
19,ACATTCTA,0.201
20,CCAATAGA,-0.175
21,CGATACCA,-0.0198
22,GGGTATAA,0.126
23,CGGTAGCC,0.0555
24,CTGACTAA,0.113
25,AAAGTCTC,0.0411

row,Sequence,PBM E-score
1,GCAATTGC,0.0743
2,TGATTTAA,0.155
3,CCACGTGA,0.0468
4,ACAGCGAG,0.0275
5,CAACAAGC,0.135
6,ATATAGGC,0.0845
7,ACCGAAAA,0.112
8,GGGTGCTA,-0.126
9,GGGGCTAA,-0.257
10,AACCTTAA,-0.031
11,GTCAGCCA,-0.13
12,ACACTACC,-0.24
13,AGTGCTAA,-0.0384
14,TACCTCCA,-0.0136
15,GCGCGGTA,0.069
16,AGGGATTG,-0.0776
17,CCTGTATA,-0.089
18,ACATTAAA,0.218
19,CCTATTTC,0.0612
20,CGTACTCC,-0.00791
21,GAGACGTA,0.0797
22,ACCCTATC,-0.0987
23,TCTGAGCA,0.0528
24,ATTTGGAG,-0.0358
25,CGACAGGA,0.196

row,Sequence,PBM E-score
1,AAGCTTAG,0.157
2,ACCGATCG,-0.008
3,AGTCATAT,0.113
4,CATGCACA,0.13
5,GCGCATGA,-0.0716
6,ATCGCACA,-0.00887
7,ACCTACGT,-0.139
8,CAACCCTG,-0.0827
9,CTACGAAG,-0.235
10,GGGACTTA,0.23
11,CAATGTTC,0.133
12,ATGCTCTG,-0.24
13,AGCATCCG,-0.0919
14,CCTCTCGA,-0.12
15,ACGGCGCC,-0.0377
16,GGATTGTA,-0.0803
17,AACGTGGG,-0.0795
18,AATGACAG,0.151
19,GACTTGCC,-0.173
20,ACAAGAGA,0.205
21,ATACATTC,0.111
22,CTAGGCAA,-0.0633
23,CATCACGA,-0.0338
24,CTCTGTCC,0.34
25,CGGGTGCA,-0.257

row,Sequence,PBM E-score
1,GTAACTAA,0.0429
2,GACATCAC,0.118
3,CCCCTGCA,-0.351
4,CAGTGGGC,-0.251
5,CAATGGCC,-0.28
6,AATGACTC,-0.0271
7,CATTGGAG,-0.055
8,CAAACGCA,-0.00666
9,CGGTGCTA,0.0186
10,CATCTAAC,-0.115
11,AGCCCGGA,-0.0374
12,CATATTGA,0.0877
13,ACGGACCC,-0.221
14,GCGAACCC,-0.126
15,AGAAAACT,0.116
16,ACGTAAAT,0.174
17,AGAGACAC,0.177
18,CTGGGTCC,-0.312
19,CCATGTCC,0.434
20,GGCCGCAA,-0.213
21,CGAACGTA,0.0426
22,AATGTCGT,0.442
23,AGCGCGTC,-0.00545
24,ACACTAAA,0.197
25,GCAGCACC,-0.119

row,Sequence,PBM E-score
1,CGTTAGAA,0.00524
2,ACTTCCTA,-0.0221
3,AGACCGCT,-0.132
4,CCACCTAA,-0.0895
5,CTCAGAAG,-0.215
6,CATAACAA,0.121
7,ACGGGTGG,-0.216
8,ATGCTAAC,-0.106
9,ACTCCGAC,0.013
10,CGCGCACA,0.0796
11,AGCTCTGG,-0.158
12,AAAATTGC,0.054
13,ATGGTTCC,0.149
14,CAATGGTG,-0.151
15,CAACTTGC,-0.0462
16,GTGGGAGA,-0.317
17,CGACCGAG,0.029
18,CATCGAGA,0.0038
19,CCGTCGGC,-0.215
20,GACGTACA,0.192
21,GTTTCAGA,0.0535
22,AGCGAGCC,-0.0771
23,AGAGAGTC,0.03
24,ACCCAAGA,-0.0412
25,CCAGTCAC,-0.231

row,Sequence,PBM E-score
1,CTGCGGCA,-0.0777
2,CGTTACCC,-0.233
3,AACCGCCA,-0.0539
4,TGATCAAA,-0.118
5,ATAGTAAA,0.151
6,CAACCCGG,-0.228
7,GAAATAGC,-0.0331
8,AAGTGTGG,0.00029
9,ATCACACA,-0.0564
10,CATCGACA,-0.0221
11,ACCCCGAG,-0.0539
12,CGGGAACG,-0.288
13,AGGCCTGC,-0.0768
14,AGTCCTCG,0.0764
15,GGAGCGGA,0.0201
16,ACACACTC,-0.0369
17,AACGCCTA,0.04
18,CATGAATA,0.0114
19,GACGCATA,0.0771
20,ACCATTGG,0.143
21,ACTCCCTC,-0.312
22,ACTGACGG,-0.146
23,AGCCTGAA,-0.0478
24,ATGCTCGC,-0.204
25,CTAACTAA,0.0544

row,Sequence,PBM E-score
1,AACTTGGC,-0.0461
2,CCAGAGCG,-0.246
3,ACGTCTAC,-0.0798
4,AAATCCCC,-0.159
5,CAGGCAAA,0.207
6,CCTGGACC,0.0101
7,ATCGGAAC,0.0755
8,ACCCCACG,-0.327
9,GCGCTAAC,0.00726
10,GTGGGCAA,-0.12
11,AAGTCGCC,-0.166
12,AGAGATTC,-0.03
13,GGCAACAA,0.116
14,AGATCTGG,-0.147
15,AATTCCGA,0.193
16,CGCGATCC,0.0291
17,GACAATGC,0.258
18,GAGATCCA,-0.143
19,TAGTTATA,0.172
20,ACACGAAA,0.0939
21,ACGGTGCG,0.103
22,GTCAATTA,0.166
